Reference: patent publication US20220411514A1, “ANTI-GAL3 ANTIBODIES AND METHODS OF USE FOR INSULIN RESISTANCE” (TrueBinding, Inc., priority 2021, published 2022)
Positions count from the first letter of the chain named. Numbers in names are those of the source. Each block holds one molecule with its values, some of them ahead of it.

Molecular target: T1, Human Gal3 peptides (Homo sapiens, UniProt P17931)
T1 construct: purchased LifeTein custom order
Assay: Gal3 peptide binding ELISA (Example 8)
Settings: antibody 5 μg/mL
Description: Gal3 peptide binding activity of additional exemplary anti-Gal3 antibodies was assessed with the same peptides as described in FIG. 18 (SEQ ID NOs: 3-26). Human Gal3 peptides (LifeTein, custom order) and human Gal3 proteins (R&D Systems, 8259-GA; TrueBinding, QCB200349) were diluted in PBS (Corning, 21-030-CM) to concentrations of at least 100 μg/mL (peptides) or 1 μg/mL (proteins), and added to the wells of several 96-well ELISA plates (Thermo Fisher, 44-2404-21). After incubating the plates at 4° C. overnight, the plates were washed three times with PBST (PBS with 0.05% Tween 20 [VWR, 0777]). The plates were then blocked for an hour with 2% BSA (EMD Millipore, 126609) in PBST at room temperature with gentle rocking. Thereafter, the 2% BSA in PBST was discarded and Gal3-binding antibodies (reformatted hIgG4 [S228P]) were diluted in 2% BSA in PBST to concentrations of 5 μg/mL and added to the wells. The plates were incubated for an hour at room temperature with gentle rocking and then washed three times with PBST. Afterwards, Peroxidase AffiniPure F(ab′)2 Fragment Goat Anti-Human IgG (H+L) polyclonal antibody (Jackson ImmunoResearch, 109-036-003), was diluted in 2% BSA in PBST (1:4000) and added to the wells. The plates were incubated for 1 hour at room temperature with gentle rocking and then washed three times with PBST. TMB substrate (Thermo Scientific, 34029) was then added to each well. The reaction was stopped with 1M HCl (JT Baker, 5620-02) and read using a plate reader (Molecular Devices) at absorbance of 450 nm.

B2: F847C.4B10: anti-Gal3 antibody (antibody)
heavy: EVQLVETGGGLVKPGGSLKLSCAASGFTFSSYAMSWVRQTPEKRLEWVASISSGGSTYYPDSVKGRFTISRDNARNILYLQMSSLRSEDTAMYYCTRFTTVVEMDYWGQGTSVTVSSASTKGPSVFPLAPCSRSTSESTAALGCLVKDYFPEPVTVSWNSGALTSGVHTFPAVLQSSGLYSLSSVVTVPSSSLGTKTYTCNVDHKPSNTKVDKRV[in this place human IgG4 Fc with S228P (EU numbers)]
light: QAVVTQESALTTSPGETVTLTCRSSTGAVTTSNYANWVQEKPDHLFTGLIGGTNNRAPGVPARFSGSLIGDKAALTITGAQTEDEAIYFCALWYSNHLVFGGGTKLTVLRTVAAPSVFIFPPSDEQLKSGTASVVCLLNNFYPREAKVQWKVDNALQSGNSQESVTEQDSKDSTYSLSSTLTLSKADYEKHKVYACEVTHQGLSSPVTKSFNRGEC
modifications: F847C.4B10 heavy chain peptide sequence; F847C.4B10/847.14H4 light chain peptide sequence
notes: anti-Gal3 antibody
binding to Gal3 peptide 1 (SEQ ID NO: 3): bound

B3: F846C.1H5: anti-Gal3 antibody (antibody)
heavy: EVQLLESGGGLVKPGGSLKLSCAASGFTFSSYAMSWVRQTPEKRLEWVASISSGGDTYYPDSVKGRFTISRDNARNILYLQMSSLRSEDTAMYYCASYGNSLFDYWGQGTTLTVSSASTKGPSVFPLAPCSRSTSESTAALGCLVKDYFPEPVTVSWNSGALTSGVHTFPAVLQSSGLYSLSSVVTVPSSSLGTKTYTCNVDHKPSNTKVDKRV[in this place human IgG4 Fc with S228P (EU numbers)]
light: DVVMTQTPLSLPVSLGDQASISCRSSQSLVHNSGNTYLHWYLQRPGQSPNLLIYKVSNRFSGVPDRFSGSGSGTDFTLKISRVAAEDLGVYFCSQSTHVPPTFGGGTKLEIKRTVAAPSVFIFPPSDEQLKSGTASVVCLLNNFYPREAKVQWKVDNALQSGNSQESVTEQDSKDSTYSLSSTLTLSKADYEKHKVYACEVTHQGLSSPVTKSFNRGEC
modifications: F846C.1H5 heavy chain peptide sequence; F846C.1H5 light chain peptide sequence
notes: anti-Gal3 antibody
binding to Gal3 peptide 1 (SEQ ID NO: 3): bound

B4: F846TC.14A2: anti-Gal3 antibody (antibody)
heavy: QIQLVQSGPELKKPGETVKISCKASGYTFTNYGMNWVKQAPGKGLKWMGWINTYTGEPTYAGDLKGRFAFSLETSASTAYLQINNLKNEDTATYFCVRYTMDYWGQGTSVTVSSASTKGPSVFPLAPCSRSTSESTAALGCLVKDYFPEPVTVSWNSGALTSGVHTFPAVLQSSGLYSLSSVVTVPSSSLGTKTYTCNVDHKPSNTKVDKRV[in this place human IgG4 Fc with S228P (EU numbers)]
light: B2 light with T53I, A57V, L98W
modifications: F846TC.14A2 heavy chain peptide sequence; F846TC.14A2 light chain peptide sequence
notes: anti-Gal3 antibody
binding to Gal3 peptide 1 (SEQ ID NO: 3): bound
binding to Gal3 peptide 7 (SEQ ID NO: 9): bound
binding to Gal3 peptide 8 (SEQ ID NO: 10): bound

B5: F846TC.7F10: anti-Gal3 antibody (antibody)
heavy: EVQLVESGGDLVKPGGSLKLSCAASGFTFSNYGLSWIRQTPDKRLEWVATISSGGSYTYYPDSVKGRFTISRDSAKNTLYLQMSSLKSEDTAMYYCARHAHYYGVSPYYFDYWGQGTCLTVSSASTKGPSVFPLAPCSRSTSESTAALGCLVKDYFPEPVTVSWNSGALTSGVHTFPAVLQSSGLYSLSSVVTVPSSSLGTKTYTCNVDHKPSNTKVDKRV[in this place human IgG4 Fc with S228P (EU numbers)]
light: DIVMTQSPSSLAMSVGQKVTMSCKSSQSLLNSSNQKNYLAWYQQKPGQSPKLLVYFASTRESGVPDRFIGSGSGTDFTLTISSVQAEDLADYFCQQHYSTPYTFGGGAKLEIKRTVAAPSVFIFPPSDEQLKSGTASVVCLLNNFYPREAKVQWKVDNALQSGNSQESVTEQDSKDSTYSLSSTLTLSKADYEKHKVYACEVTHQGLSSPVTKSFNRGEC
modifications: F846TC.7F10 heavy chain peptide sequence; F846TC.7F10 light chain peptide sequence
notes: anti-Gal3 antibody
binding to Gal3 peptide 1 (SEQ ID NO: 3): bound

B8: F846TC.14E4: anti-Gal3 antibody (antibody)
heavy: QVTLKESGPGILQPSQTLSLTCSFSGFSLSTSGMGVGWIRQPSGKGLEWLAHIWWDDDKYYNTALKSGLTISKDASKNQVFLKIASMDTADTATYYCARNLYDGSYGYYAMDYWGQGTSVTVSSASTKGPSVFPLAPCSRSTSESTAALGCLVKDYFPEPVTVSWNSGALTSGVHTFPAVLQSSGLYSLSSVVTVPSSSLGTKTYTCNVDHKPSNTKVDKRV[in this place human IgG4 Fc with S228P (EU numbers)]
light: DIVMTQAAFSNPVTLGTSASISCRSSKSLLHTNGITFLYWYLQKPGQSPQPLIYQMSNLASGVPDRFSSSGSGTDFTLRISRVEAEDVGVYYCAQNLELPWTFGGGTKLEINRTVAAPSVFIFPPSDEQLKSGTASVVCLLNNFYPREAKVQWKVDNALQSGNSQESVTEQDSKDSTYSLSSTLTLSKADYEKHKVYACEVTHQGLSSPVTKSFNRGEC
modifications: F846TC.14E4 heavy chain peptide sequence; F846TC.14E4 light chain peptide sequence
notes: anti-Gal3 antibody
binding to Gal3 peptide 2 (SEQ ID NO: 4): bound

The next lines start with the values.

binding to Gal3 peptide 1 (SEQ ID NO: 3): bound
binding to Gal3 peptide 7 (SEQ ID NO: 9): bound
B1: F847C.26F5: anti-Gal3 antibody (antibody)
heavy: QIQLVQSGPEVKKPGETVKISCKASGYIFTNYGMNWVKQAPGKGLKWMGWINTYTGEPTYTDDFKGRFAFSLETSASTAYLQINNLKNEDTATYFCAKFGNYVGAMDYWGQGTSVTVSSASTKGPSVFPLAPCSRSTSESTAALGCLVKDYFPEPVTVSWNSGALTSGVHTFPAVLQSSGLYSLSSVVTVPSSSLGTKTYTCNVDHKPSNTKVDKRV[in this place human IgG4 Fc with S228P (EU numbers)]
light: EIKMNQSPSSLSASLGDTITITCHASQNINVWLSWYQQKPGNIPKLLIYKASNLHTGVPSRFSGSGSGTGFTLTISSLQPEDIATYYCQQGQSYPYTFGGGTKLELKRTVAAPSVFIFPPSDEQLKSGTASVVCLLNNFYPREAKVQWKVDNALQSGNSQESVTEQDSKDSTYSLSSTLTLSKADYEKHKVYACEVTHQGLSSPVTKSFNRGEC
modifications: F847C.26F5 heavy chain peptide sequence; F847C.26F5 light chain peptide sequence
notes: anti-Gal3 antibody

binding to Gal3 peptide 1 (SEQ ID NO: 3): bound
binding to Gal3 peptide 7 (SEQ ID NO: 9): bound
B6: F847C.10B9: anti-Gal3 antibody (antibody)
heavy: B1 heavy
light: B1 light with E1D, K3R, N5T
modifications: F847C.10B9 heavy chain peptide sequence; F847C.10B9 light chain peptide sequence
notes: anti-Gal3 antibody

binding to Gal3 peptide 1 (SEQ ID NO: 3): bound
binding to Gal3 peptide 7 (SEQ ID NO: 9): bound
B7: F847C.12F12: anti-Gal3 antibody (antibody)
heavy: B1 heavy with V11L, I28T, T61V, Q82R
light: B1 light with E1D, K3Q, M4V, N5I
modifications: F847C.12F12 heavy chain peptide sequence; F847C.12F12 light chain peptide sequence
notes: anti-Gal3 antibody

binding to Gal3 peptide 2 (SEQ ID NO: 4): bound
binding to Gal3 peptide 3 (SEQ ID NO: 5): bound
B9: F849C.8D10: anti-Gal3 antibody (antibody)
heavy: QVQLQQTGAELVKPGASVKLSCKASGYTFTSYWINWVKQRPGQGLEWIGNIYPGSSSIYYSEKFKSKATLTVDTSSSTAYMQLSSLTSDDSAVYYCARWGYWGQGTTLTVSSASTKGPSVFPLAPCSRSTSESTAALGCLVKDYFPEPVTVSWNSGALTSGVHTFPAVLQSSGLYSLSSVVTVPSSSLGTKTYTCNVDHKPSNTKVDKRV[in this place human IgG4 Fc with S228P (EU numbers)]
light: DVLMTQTPLSLPVSLGDQASISCRSSQDIVHSSGNTYLEWYLQKPGQSLKLLIYKVSNRFSGVPDRFSASGSGTDFTLKISRVEAEDLGVYYCFQGSHVPPTFGSGTKLEIKRTVAAPSVFIFPPSDEQLKSGTASVVCLLNNFYPREAKVQWKVDNALQSGNSQESVTEQDSKDSTYSLSSTLTLSKADYEKHKVYACEVTHQGLSSPVTKSFNRGEC
modifications: F849C.8D10 heavy chain peptide sequence; F849C.8D10 light chain peptide sequence
notes: anti-Gal3 antibody
